Out of some 52,000 compounds screened, about 1,700 (3.3%) were called active. Cut-off read from the data, not from the text of the source: active = survival mostly below about 52% (no sharp cut-off); inactive = mostly above about 56%. Some of the results follow.
The compounds below were run on Wild type (assay: growth inhibition of S. aureus wild type versus tarO mutant, primary screen, teichoic acid synthesis inhibitors, RN4220, OD600 (AID 463173)). Conditions: S. aureus RN4220 wild type/DeltatarO growth, OD600, 18 h, active compounds read low, screened at 18.75 µg/mL (by protocol).

SMILES	survival
Cc1n(O)c2c3c(c4c(c2[n+]1[O-])n(O)c(C)[n+]4[O-])[n+]([O-])c(C)n3O	inactive: 104%
COc1ccc(OC)c(NC(=O)Cn2c(=O)n(Cc3nc(C)no3)c(=O)c3ccccc32)c1	inactive: 72%
COc1ccc(Cl)cc1NC(=O)NCCc1c(C)nn(C)c1C	active: -3%
COc1ccc(Nc2ncnc3onc(C)c23)c(OC)c1	inactive: 68%
Cc1ccc(Sc2c(C)nn(C(=O)c3ccc(Br)cc3)c2C)cc1	active: 13%
COc1ccccc1CNS(=O)(=O)c1ccc2c(c1)CC(C)N2C(=O)C1CCC1 (centres undefined)	inactive: 126%
COc1ccc(N2CCN(C(=O)C(C)n3c(=O)cc(C(F)(F)F)c4c(C)nn(C)c43)CC2)cc1 (centres undefined)	inactive: 89%
Cn1cnc(S(=O)(=O)N2CCCC(C(=O)NCc3ccccc3)C2)c1 (centres undefined)	inactive: 78%
Cc1cccc(N2CCN(C(=O)Cn3ncc4c([nH]c5ccccc54)c3=O)CC2C)c1 (centres undefined)	inactive: 74%
COc1ccc(-c2cc(C)no2)cc1S(=O)(=O)NC1CCC(C)CC1 (centres undefined)	inactive: 78%
CCOc1ccc(NC(=O)c2cc(C)nc3c2c(C)nn3-c2cccc(F)c2)cc1	inactive: 72%
CN1CCCc2cc(CN)ccc21	inactive: 121%
Cc1ccc(NC(=O)C2CCCN2S(=O)(=O)c2ccc3c(c2)C(C)(C)C(=O)N3C)cc1 (centres undefined)	inactive: 84%
Cc1ccc(S(=O)(=O)c2nc(-c3ccco3)oc2SCc2ccc(F)cc2)cc1	inactive: 81%
CC1(C(=O)NC2CCCCC2)Cc2ccccc2C(=O)N1Cc1ccc(F)cc1 (centres undefined)	inactive: 119%
CCOc1ccc(-n2ccnc2SCC(=O)Nc2ccc3c(c2)OCO3)cc1	inactive: 71%
O=C(CSc1nc2ccccc2nc1Cc1ccccc1)Nc1ccccc1C(F)(F)F	inactive: 77%
COc1ccc(S(=O)(=O)NCCc2sc3nc(-c4ccc(C)cc4)nn3c2C)cc1F	inactive: 81%
CCOc1ccc(CNC(=O)c2cnc3sc(N(CC)CC)nn3c2=O)cc1	inactive: 75%
O=C(NCCS(=O)(=O)N1CCN(c2ccccc2F)CC1)C1CC(=O)N(c2ccccc2)C1 (centres undefined)	inactive: 73%
COc1cccc(NC(=O)c2c(N3CCCC3=O)c3cc(C)ccc3n2C)c1	inactive: 77%
CCOC(=O)CCCN1C(=O)CCn2nc(-c3cn(C)c4ccccc34)cc21	inactive: 68%
CCOc1ccc(CCNC(=O)c2cccc(-n3c(C)nc4cccnc43)c2C)cc1	inactive: 85%

SMILES	survival
O=C(Nc1ccc(C(=O)OCc2cc(=O)n3nc(C4CC4)sc3n2)cc1)c1cccc(Cl)c1	inactive: 60%
CCc1ccccc1NC(=O)C(CC)Oc1ccccc1-c1nnc(-c2ccccc2)o1 (centres undefined)	active: 0%
COc1ccc(S(=O)(=O)N(Cc2cc3cc4c(cc3n3nnnc23)OCO4)C2CCCCC2)cc1	inactive: 104%
CCCCN(Cc1ccccc1)S(=O)(=O)c1cc(Br)cc2c1N(C(C)=O)CC2	inactive: 83%
C=CCNc1nc(NCc2ccco2)nc(OCC)n1	inactive: 109%
CC(=O)Nc1nnc(CC(C)(C)C)s1	inactive: 98%
O=C1CC(c2ccc(Cl)cc2)c2cc3c(cc2N1)OCCO3 (centres undefined)	inactive: 82%
COc1ccc(C(=O)Nc2c(C(=O)c3ccc(F)cc3)oc3ccccc23)cc1	inactive: 91%
CCc1cccc(C)c1NC(=O)C1CCN(S(=O)(=O)c2cccc3nonc23)CC1	inactive: 96%
CCOCCCNC(=O)c1cc(=O)[nH]c2ccc(S(=O)(=O)N3CCCC3)cc12	inactive: 89%
CCOc1ccc(CNC(=O)c2cccn2-c2nnc(N3CCCCC3)s2)cc1OC	inactive: 101%
CCCCC(=O)Nc1c(C(=O)N2CCN(c3ccccc3)CC2)oc2ccccc12	inactive: 80%
CCCSc1ncc(Cl)c(C(=O)Nc2scc(-c3ccc(C)cc3)c2C(=O)OCC)n1	inactive: 87%
CCCCCn1c(=O)[nH]c2cc(C(=O)N3CCN(c4cccc(OC)c4)CC3)ccc2c1=O	inactive: 72%
COc1ccc(-c2nc3c(c(SCC(=O)Nc4ccccc4OC)n2)Cc2cccc(C)c2O3)cc1	inactive: 88%
Cc1cc(C)cc(OCc2cc(=O)n3c4c(sc3n2)CCCC4)c1	inactive: 91%
CC(C)Oc1ccc(CNC(=O)C2CCCCN2S(=O)(=O)c2ccc(F)cc2)cc1 (centres undefined)	inactive: 73%
CC(=O)Nc1nc2ccc3ccccc3c2s1	inactive: 101%
CCC(C)NC(=O)Cc1ccc(NC(=O)N2CCCCc3ccccc32)cc1 (centres undefined)	inactive: 78%
O=C(CS(=O)(=O)c1cccc2nsnc12)Nc1ccc(F)cc1F	inactive: 81%
Cc1ccc(-n2c(=O)c3oc4ccccc4c3n(CC(=O)Nc3ccc(F)c(Cl)c3)c2=O)cc1C	inactive: 67%
COc1ccc(CN(C(=O)CN2C(=O)COc3ccccc32)C2CCCC2)c(OC)c1	inactive: 109%
N#Cc1ccccc1NC(=O)C(=O)NCC(c1ccc2c(c1)OCO2)N1CCOCC1 (centres undefined)	inactive: 73%

SMILES	survival
CC(=O)N1CCOc2cc(S(=O)(=O)Nc3c(C)cccc3C(C)C)c(Cl)cc21	inactive: 78%
CC(C)CCNC(=O)c1c2c(nc3ccccc13)C(=O)N(C1CCCCC1)C2	inactive: 78%
Cc1ccc(-c2nc(CS(=O)CC(=O)N3CCN(c4ccc(F)cc4)CC3)c(C)o2)cc1 (centres undefined)	inactive: 72%
O=C(Nc1ccccc1F)C1CCN(S(=O)(=O)c2ccc3c(c2)CCCN3C(=O)C2CCC2)CC1	inactive: 74%
CCCCN(C)C(=O)c1ccc2c(c1)N(Cc1ccc(F)cc1)C(=O)c1ccccc1S2(=O)=O	inactive: 104%
CC(=O)c1ccc(NC(=O)COc2ccccc2-c2nc(C(C)C)no2)cc1	inactive: 80%
CCOC(=O)c1c(C)[nH]c(C)c1S(=O)(=O)NCC(=O)Nc1cc(Cl)ccc1OC	active: -6%
COc1ccc(C)cc1Nc1c2c(nc3ccccc13)CCC2	inactive: 81%
N#C/C(=C\c1ccc(N2CCCCC2)o1)C(N)=O	inactive: 112%
O=C(COc1ccccc1)Nc1nnc2n1CCS2	inactive: 88%
CCC(=O)Nc1ccc(-c2nc3ccc(NC(=O)CC)cc3[nH]2)cc1	inactive: 113%
CCOC(=O)C1CCN(S(=O)(=O)c2cc(-c3cc(C)no3)ccc2OC)CC1	inactive: 105%
CCc1cccc2c(C=C(C#N)C#N)cn(CC(=O)N3CCCCCC3)c12	inactive: 100%
CC(C)(C)C(=O)Cn1c(=O)n(CCCCCC(=O)NCc2ccccc2Cl)c(=O)c2sccc21	inactive: 81%
Cc1ccc(NC(=O)C(Cc2ccccc2)NS(=O)(=O)c2ccc3c(c2)oc(=O)n3C)cc1C (centres undefined)	inactive: 77%
CC(=O)c1ccc(N2CCN(C(=O)Nc3cn(CC(C)C)c(=O)c4ccccc34)CC2)cc1	inactive: 69%
O=C(Cc1ccccc1)Nc1nc2ccccc2s1	inactive: 127%
COc1cc(OC)cc(-c2nc3nc(C)c(CCC(=O)Nc4ccccc4)c(C)n3n2)c1	inactive: 74%
O=C(CSc1nc(-c2ccco2)nc2cc(=O)[nH]n12)Nc1ccc(F)cc1	inactive: 65%
Cc1ccc(C)c(NC(=O)CSc2nnc(NC(=O)Nc3ccccc3)s2)c1	inactive: 68%
CCc1ccc(NC(=O)Cn2c(C(=O)OC)cc3oc(C)cc32)cc1	inactive: 88%
CCN1CCN(Cc2nc3cc(NC(=O)c4cccc([N+](=O)[O-])c4)ccc3n2CC)CC1	inactive: 116%
COc1ccc(C2CC(=O)Nc3cc4c(cc32)OCO4)c(OC)c1 (centres undefined)	inactive: 98%

SMILES	survival
Cc1ccccc1OCC(=O)Nc1ccc2[nH]c(=O)sc2c1	inactive: 125%
CCOC(=O)N1CCC(NC(=O)c2ccc3c(c2)N(Cc2ccc(F)cc2)C(=O)c2ccccc2S3=O)CC1 (centres undefined)	inactive: 91%
COc1ccc(CCNC(=O)c2nc(SCc3ccc(F)cc3)ncc2Cl)cc1OC	inactive: 86%
Cc1ccc(CCNC(=O)C(C)n2nc(C)c3c(C)n(-c4ccc(C)cc4)nc3c2=O)cc1 (centres undefined)	inactive: 75%
CCCCCCC(=O)Nc1cc2nc3c(nc2cc1C)c(=O)n(C)c(=O)n3C	inactive: 135%
CCc1ccc(C2CC(=O)c3c([nH]c(C(=O)OC4CCCCCC4)c3C)C2)cc1 (centres undefined)	inactive: 127%
COc1ccc(NC(=O)CN2CCN(C3CCCCC3)C(=O)C2=O)cc1	inactive: 135%
Cc1ccc(CNC(=O)c2cc(=O)c3cc(C)c(C)cc3o2)cc1	inactive: 86%
COc1ccc(CNC(=O)C2CCCN(C(=O)c3cnn(-c4ccc(F)cc4)c3-n3cccc3)C2)cc1 (centres undefined)	inactive: 75%
CCOC(=O)c1c(-c2ccc(Br)cc2)csc1NC(=O)c1ccc(C(C)(C)C)cc1	inactive: 65%
COc1ccc(NC(=O)c2cc(=O)c3cc(C)cc(C)c3o2)cc1	inactive: 82%
Cc1nc2c(-c3ccccc3)c(C)[nH]n2c(=O)c1Cc1ccc(Br)cc1	active: -5%
CCOc1cccc2sc(NC(=O)c3ccc(S(=O)(=O)N4CCCCC4)cc3)nc12	inactive: 75%
O=C(NCCS(=O)(=O)N1CCN(c2ccc(F)cc2)CC1)c1ccccc1Br	inactive: 68%
CCOc1ccc(CC(=O)NCCc2sc(-c3cccc(F)c3)nc2C)cc1	inactive: 58%
CC(=O)Nc1cccc(NC(=O)CSc2cn(CC(=O)N3CCCC3)c3ccccc23)c1	inactive: 95%
CC(CNc1nc2ccccc2c2nc(-c3ccccc3)nn12)c1ccccc1 (centres undefined)	inactive: 118%
O=C(C1=C(O)C(=O)N(Cc2ccccc2)C1c1ccco1)c1ccco1 (centres undefined)	inactive: 103%
CCCS(=O)(=O)c1nc(S(=O)(=O)c2ccc(C)cc2)c(NCC(C)C)s1	inactive: 92%
CC1CCN(S(=O)(=O)c2ccc3c(ccc(=O)n3CC(=O)NCc3ccccc3)c2)CC1	inactive: 22%

— PubChem BioAssay AID463173 (ICCB-Longwood Screening Facility, Harvard Medical School, 2010)
